Laboratory results reported in article PMC9760738, “Pharmacokinetics, absorption, distribution, metabolism and excretion of the MEK inhibitor zapnometinib in rats” (Frontiers in Pharmacology, 2022).
Where “and” joins values, the source holds several entries; their conditions need not be identical. Identical values can stand only once. Further values from the same series stand in other lists.

Experiment: Excretion balance of radioactivity after single oral 30 mg/kg [14C]-zapnometinib, Sprague-Dawley rats (Group 2)
Format: in vivo, rat
Details: for Dose recovered in urine, feces and cage washings: by 24 h post dose; for Expired air: mean total
Experimental: Oral doses of [^14C]-zapnometinib were administered as a suspension in 5% DMSO (v/v), 30% PEG 400 (v/v) and 7.5% (w/v) Captisol in water at a dose level of 30 mg/kg to male and female rats by gastric intubation at a dose volume of 4 ml/kg body weight. The selected dose level (30 mg/kg) was below the no observed adverse effect level (100 mg/kg), the formulation was selected based on data obtained in other nonclinical studies. The radioactive dose administered to each animal was quantified from the weight (excretion studies only) or volume of dosing formulation given, and its mean measured radioactivity concentration. The weight of test compound administered to each rat was determined from the radioactive dose administered and the specific activity of the test material.
Total excreta from three male and three female rats were collected after single oral doses of [^14C]-zapnometinib. Urine was collected into containers cooled in solid CO2 and feces were collected separately at ambient temperature. Expired air was trapped in 1M potassium hydroxide solution. After completion of the final excreta collection, rats were killed by cervical dislocation following sedation, and the carcasses retained for analysis.
Radioactivity was measured by liquid scintillation analysis using Wallac® 1409 automatic liquid scintillation counters. Samples were prepared according to the company’s SOP (see Supplementary Methods). Briefly, replicate weighed samples were mixed with Ultima Gold™ scintillation cocktail (PerkinElmer, United States) for the measurement of radioactivity. Radioactivity in amounts less than twice that of the background concentration in the sample under investigation was below the limit of accurate quantification (BLQ). […]
For Liquid scintillation analyses, carcasses from rats (Group 2) were solubilized by digestion at ca 55 °C overnight in a solution prepared from sodium hydroxide (80 g) and Triton X-405 (100 mL) in purified water (600 mL) and methanol (300 mL). After measurement of total sample weight (as appropriate), replicate portions of diluted dose solutions (ca 0.1 mL), plasma (ca 0.05 – 0.25 mL), urine (ca 0.05 – 0.25 mL), expired air trap solution (ca 1 mL) and cage wash (ca 1 mL) were mixed directly with Ultima Gold scintillation cocktail (5 mL; 15 mL for air traps) for measurement of radioactivity concentrations. Similarly, replicate weighed portions of digested carcass solutions (ca 1 mL plus 1 mL purified water) were mixed with Ultima Gold (10 mL) scintillation cocktail for measurement of radioactivity concentrations. Feces were weighed, then homogenized to a smooth paste after the addition of an appropriate volume (approximately 1.5 volumes) of purified water and the weight of each homogenate was recorded. Replicate weighed portions of feces (ca 0.2 g) and blood cells (ca. 0.25 g) were placed on Combustocones, which were then capped with cellulose pads and burned in oxygen using […]

[1] = individual females 10F, 11F, 12F, rows in order of periods 0-24, 0-48, 0-72, 0-96, 0-120, 0-144, 0-168 h

**Q.** What does the source list for `O=C(O)c1ccc(F)c(F)c1Nc1ccc(I)cc1Cl` [zapnometinib, 2-(2-Chloro-4-iodophenylamino)-3,4-difluorobenzoic acid]?
**A.** Cumulative excretion, urine (0-6 h, female, mean): 0.36 % administered dose; Cumulative excretion, faeces (0-24 h, female, mean): 68.51 % administered dose; Cumulative excretion, urine (0-24 h, female, mean): 3.21 % administered dose; Cumulative, cage wash (0-24 h, female, mean): 0.32 % administered dose; Cumulative, expired air (0-24 h, female, mean): 0.02 % administered dose; Cumulative excretion, faeces (0-48 h, female, mean): 90.62 % administered dose; Cumulative excretion, urine (0-48 h, female, mean): 3.92 % administered dose; Cumulative, cage wash (0-48 h, female, mean): 0.42 % administered dose; Cumulative, expired air (0-48 h, female, mean): 0.02 % administered dose; Cumulative excretion, faeces (0-72 h, female, mean): 93.08 % administered dose; Cumulative excretion, urine (0-72 h, female, mean): 4.05 % administered dose; Cumulative, cage wash (0-72 h, female, mean): 0.44 % administered dose; Cumulative, expired air (0-72 h, female, mean): 0.02 % administered dose; Cumulative excretion, faeces (0-96 h, female, mean): 93.21 % administered dose; Cumulative excretion, urine (0-96 h, female, mean): 4.08 % administered dose; Cumulative, cage wash (0-96 h, female, mean): 0.45 % administered dose; Cumulative excretion, faeces (0-120 h, female, mean): 93.26 % administered dose; Cumulative excretion, urine (0-120 h, female, mean): 4.10 % administered dose; Cumulative, cage wash (0-120 h, female, mean): 0.46 % administered dose; Cumulative excretion, faeces (0-144 h, female, mean): 93.30 % administered dose; Cumulative excretion, urine (0-144 h, female, mean): 4.11 % administered dose; Cumulative, cage wash (0-144 h, female, mean): 0.46 % administered dose; Radioactivity excreted in feces (0-168 h, both sexes): ~90 % dose; Cage wash (0-168 h, female, mean): 0.60 % Administered dose; Excretion in feces (0-168 h, female, mean): 93.32 % Administered dose; Excretion in urine (0-168 h, female, mean): ~4 % Administered dose and 4.12 % Administered dose; Cage wash (0-168 h, male, mean): 0.22 % Administered dose; Excretion in feces (0-168 h, male, mean): 90.45 % Administered dose; Excretion in urine (0-168 h, male, mean): ~3 % Administered dose and 2.83 % Administered dose; Dose recovered in urine, feces and cage washings (females): ~72 % dose; Dose recovered in urine, feces and cage washings (males): ~82 % dose; Expired air (female): 0.02 % Administered dose; Dose excreted (first 24 h post dose, males and females): > 70 % dose; Cumulative, expired air (individual females 10F, 11F, 12F, periods 0-24, 0-48, 0-72 h): 0.02 % administered dose; Cumulative excretion, urine (individual females 10F, 11F, 12F, rows in order of periods 0-6, 0-24, 0-48, 0-72, 0-96, 0-120, 0-144, 0-168 h): 0.44 % administered dose and 0.35 % administered dose and 0.28 % administered dose and 3.09 % administered dose and 3.03 % administered dose and 3.50 % administered dose and 3.79 % administered dose and 3.70 % administered dose and 4.26 % administered dose and 3.96 % administered dose and 3.81 % administered dose and 4.37 % administered dose and 4.00 % administered dose and 3.84 % administered dose and 4.41 % administered dose and 4.02 % administered dose and 3.86 % administered dose and 4.43 % administered dose and 4.03 % administered dose and 3.87 % administered dose and 4.44 % administered dose and 4.04 % administered dose and 3.88 % administered dose and 4.45 % administered dose; Cumulative excretion, faeces [1]: 68.79 % administered dose and 74.70 % administered dose and 62.03 % administered dose and 90.11 % administered dose and 96.59 % administered dose and 85.16 % administered dose and 96.05 % administered dose and 97.23 % administered dose and 85.96 % administered dose and 96.19 % administered dose and 97.39 % administered dose and 86.06 % administered dose and 96.25 % administered dose and 97.44 % administered dose and 86.10 % administered dose and 96.29 % administered dose and 97.47 % administered dose and 86.13 % administered dose and 96.32 % administered dose and 97.49 % administered dose and 86.15 % administered dose; Cumulative, cage wash [1]: 0.39 % administered dose (2×) and 0.21 % administered dose and 0.35 % administered dose and 0.48 % administered dose and 0.37 % administered dose and 0.42 % administered dose (2×) and 0.50 % administered dose and 0.44 % administered dose and 0.51 % administered dose and 0.40 % administered dose (3×) and 0.45 % administered dose (2×) and 0.52 % administered dose and 0.53 % administered dose (2×) and 0.46 % administered dose and 0.85 % administered dose; Expired air (male): 0.02 % Administered dose; Compound excreted (within 48 h, mainly via feces): more than 90%
